Measurements from PubChem BioAssay AID488969 (Vanderbilt High Throughput Screening Facility, 2010).
Whole data set: some 110,000 compounds, median “z-score” near -0.1, cut for the highest 2% near 2. The list shows a part of the results. Activity calls are given as the source filed them.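 The calls were made as follows: active = z-score in the third read window above 3 or below -3; inactive = the rest.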

The compounds below were run against Metabotropic glutamate receptor 8 (Rattus norvegicus) (UniProt P70579) (assay: mGluR8 Gi/Go-coupled signaling modulation – cell-based, rat, thallium flux, HTS, primary screen (AID 488969)). Settings: HEK293 rat mGluR8, GIRK (G protein-gated inwardly rectifying potassium channel) thallium flux, FluoZin2; at 10 µM; stronger effect = higher value; submaximal glutamate (EC20) added with thallium.
Sequence of UniProt P70579 (P70579 whole entry, looked up): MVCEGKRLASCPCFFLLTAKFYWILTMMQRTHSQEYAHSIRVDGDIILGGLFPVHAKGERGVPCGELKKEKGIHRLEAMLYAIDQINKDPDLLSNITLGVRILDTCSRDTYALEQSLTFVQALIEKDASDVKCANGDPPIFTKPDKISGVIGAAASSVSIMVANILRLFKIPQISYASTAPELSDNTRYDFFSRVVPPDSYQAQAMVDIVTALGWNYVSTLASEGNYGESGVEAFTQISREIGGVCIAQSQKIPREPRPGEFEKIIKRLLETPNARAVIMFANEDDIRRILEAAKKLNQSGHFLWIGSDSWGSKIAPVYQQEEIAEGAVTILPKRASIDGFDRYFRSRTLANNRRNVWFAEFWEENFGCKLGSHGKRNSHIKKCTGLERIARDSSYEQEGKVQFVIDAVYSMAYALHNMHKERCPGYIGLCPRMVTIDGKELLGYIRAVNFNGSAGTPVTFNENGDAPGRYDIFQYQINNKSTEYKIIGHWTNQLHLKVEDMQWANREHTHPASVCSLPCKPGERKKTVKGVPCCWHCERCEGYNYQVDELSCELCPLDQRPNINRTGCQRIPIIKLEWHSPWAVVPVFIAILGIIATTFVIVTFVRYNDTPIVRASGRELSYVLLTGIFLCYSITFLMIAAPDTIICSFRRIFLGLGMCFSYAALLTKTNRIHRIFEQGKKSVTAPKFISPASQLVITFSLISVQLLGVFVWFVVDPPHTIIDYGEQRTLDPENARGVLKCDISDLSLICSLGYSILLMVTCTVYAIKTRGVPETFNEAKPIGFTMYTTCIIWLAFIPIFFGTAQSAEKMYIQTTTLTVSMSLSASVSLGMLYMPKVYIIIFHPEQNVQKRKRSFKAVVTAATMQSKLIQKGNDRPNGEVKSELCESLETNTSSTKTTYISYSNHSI

Row | SMILES | z-score
1 | O=C(NC1CC1)c1ccc(S(=O)(=O)NCC2CCCCC2)cc1 | 0.116
2 | COC(=O)C(CC(C)C)NC(=O)CSc1nc(-c2ccccc2)c(C#N)c(=O)[nH]1 (centres undefined) | -0.417
3 | COc1cccc(OC)c1C(=O)NN1CCCCC1 | -0.254
4 | Cc1ccc(C(=O)NCCCn2ccnc2)cc1[N+](=O)[O-] | 0.161
5 | O=C(Nc1ccc(N2CCOCC2)cc1)c1cccnc1 | -0.32
6 | CC(C)(C)CC(=O)O/N=C(\N)c1ccccn1 | -0.0383
7 | Cc1ccc(C2=NN(S(C)(=O)=O)C(c3ccc4c(c3)OCO4)C2)cc1 (centres undefined) | 0.202
8 | COc1cc(OC)nc(NC(=O)NS(=O)(=O)c2ccc(OC(F)(F)F)cc2)n1 | -0.799
9 | CCCc1nc(N2CCOCC2)c(C#N)c2c1CCCC2 | 1.21
10 | Cn1c(SCc2nc(-c3cccs3)no2)nnc1C1CCCCC1 | -0.304
11 | COc1cc2c(cc1OC)-c1cc(NC3CCCCC3)nc(=O)n1CC2 | -2.16
12 | CC(C)CC(c1nnnn1Cc1ccccc1)N1CCN(C(=O)c2ccco2)CC1 (centres undefined) | 0.752
13 | CCOCCOCCC(C(=O)OCC)P(=O)(c1ccccc1)c1ccccc1 (centres undefined) | 0.0813
14 | COc1cc(NC(=O)CSc2ncccc2C(=O)OC(C)C)cc(OC)c1 | 0.436
15 | O=C(c1ccc(S(=O)(=O)N2CCCCCC2)cc1)N1CCN(c2ccccn2)CC1 | -0.97
16 | CCOC(=O)Nc1nnc(/C=C/c2ccc(OC)cc2)s1 | -0.0465
17 | Fc1cccc(CSc2ncnc3c2oc2ccccc23)c1 | -0.0132
18 | O=C(/C=C/c1ccccc1)N1CCN(C(=O)c2ccco2)CC1 | -0.277
19 | Cc1cc(NC(=O)c2cc(-c3cccs3)on2)nn1Cc1ccc(Cl)cc1 | -0.986
20 | CCOC(=O)c1sc2ncnc(OC)c2c1C | -1.01
21 | N=c1ncn(CC(O)CO)c2nc(N3CCOCC3)[nH]c12 (centres undefined) | -0.0516
22 | CCn1c(SCC(=O)Nc2cccc(NC(=O)c3ccco3)c2)nnc1-c1cccs1 | -0.238

Row | SMILES | z-score
23 | Cc1cc(C)c(C#N)c(SCC(=O)c2cc(C)n(CCc3ccccc3)c2C)n1 | -0.392
24 | COc1cccc(C(=O)Nc2cccc(C(=O)NCC(C)C)c2)c1 | -0.271
25 | Cc1cc(C)c2c(=O)cc(C(F)F)oc2c1 | -0.047
26 | CCOc1ccc(CCNC(=O)c2ccc(N3CCCC3=O)cc2)cc1OCC | 0.407
27 | CN(C)C(=S)Nc1ccc2ccccc2c1 | 0.277
28 | CCOC(=O)C1=C(C)NC(=O)NC1c1cccc(OC)c1OCc1ccccc1Cl (centres undefined) | 0.00808
29 | CCn1c(COc2ccc(OC)cc2)nc2ccccc21 | -0.207
30 | COc1ccc(-c2nc(CS(=O)CC(=O)N3CCc4ccccc4C3)c(C)o2)cc1 (centres undefined) | -0.0904
31 | O=C1C(=O)N(c2ccccc2)c2ccccc21 | -0.226
32 | CCCS(=O)(=O)c1c(S(=O)(=O)CCC)c2cnccn2c1C(=O)c1ccc(Cl)cc1 | -0.151
33 | CCn1c(NCc2cccc(OC)c2OC)nc2ccccc21 | -0.218
34 | COC(=O)CSc1nnc(CNC(=O)c2ccccc2OC)n1C | -0.323
35 | Cc1cc2cc(CN(CCN3CCOCC3)C(=O)Nc3ccccc3F)c(=O)[nH]c2cc1C | -0.536
36 | CCNC(=O)c1sc(=S)n(-c2ccc(C)cc2)c1N | -0.262
37 | CCC(C)(C(=O)NC1CCCCC1)N(CC1CCCO1)C(=O)CNC(=O)c1ccccc1 (centres undefined) | 0.914
38 | CN1CCc2c(sc3c2C(=O)NC(c2cn(Cc4ccccc4)c4ccccc24)N3)C1 (centres undefined) | 0.56
39 | CCC1Oc2ccccc2N(CC(=O)NCCC2=CCCCC2)C1=O (centres undefined) | -0.455
40 | CCOC(=O)c1nnn(-c2nonc2N)c1CSc1ccccc1 | -1.55
41 | CC(C)(C)C1=CC(=O)C(N2CCOCC2)=CC1=O | -0.761
42 | CC1(C)CC(=O)CC(C)(C)N1OC(=O)c1ccccn1 | 0.04
43 | Cc1ncc([N+](=O)[O-])n1CCOC(=O)Nc1ccc(Cl)c(Cl)c1 | -0.149
44 | Cc1ccc(-c2nnc(SCC(=O)N/N=C/c3cccs3)n2-c2ccc(C)cc2)cc1 | -0.202

Row | SMILES | z-score
45 | COc1ccc(S(=O)(=O)N2CCC(C(=O)NCc3ccccn3)CC2)cc1C | -0.121
46 | COc1cccc(-c2cc(C(F)(F)F)nc(N3CCCCC3)n2)c1 | -0.292
47 | CCOc1ccc2cc(/C=C/C(=O)c3ccco3)c(Cl)nc2c1 | -0.0324
48 | FC(F)(F)c1cccc(Cn2nnnc2-c2ccc(Cl)cc2)c1 | -0.11
49 | CNC(=S)NN(C)c1nc(C)cc(C)n1 | -0.186
50 | CCCC(=O)Nc1sc(C)c(C)c1C(=O)Nc1cccc(C)c1 | -0.261
51 | CCCC(=O)Nc1cc(C)c(NC(=O)C23CC4CC(CC(C4)C2)C3)cn1 | 0.0448
52 | O=[N+]([O-])c1cccc(-c2nc(-c3ccncc3)no2)c1 | 0.438
53 | COC(=O)CCC(=O)Nc1cccc2c(NC(=O)CCC(=O)OC)cccc12 | 0.169
54 | COc1ccc(CN2CCN(C(=O)C3CC(=O)N(C4CCCCCC4)C3)CC2)c(OC)c1OC (centres undefined) | 0.142
55 | O=C(COc1ccccc1)Nc1nnc(-c2ccccc2)o1 | -0.421
56 | Cc1c(NC(=O)CC(=O)Nc2c(C)n(C)n(-c3ccccc3)c2=O)c(=O)n(-c2ccccc2)n1C | -0.0936
57 | CCOC(=O)Cn1c(C)nc2c(C(=O)OCC)sc(C)c2c1=O | -0.121
58 | CC(C)COc1ccccc1C(=O)NC(CO)C(=O)O (centres undefined) | 0.167
59 | COc1ccccc1OCCc1nnc(N)s1 | -0.111
60 | O=[N+]([O-])c1cccc(/C=N/Nc2nc(C(Cl)(Cl)Cl)nc3ccccc23)c1 | -0.0926
61 | CCOC(=O)c1c(NC(=O)CSc2nnc(C)s2)sc2c1CCC(CC)C2 (centres undefined) | -0.265
62 | Cc1cccc(Oc2coc3cc(OC(=O)c4cncc(Br)c4)ccc3c2=O)c1 | 0.545
63 | CC(C)C(NC(=O)/C=C/c1ccc(F)cc1)C(C)C | 0.0433
64 | CC(=O)N/C(=C/c1ccc(OS(=O)(=O)c2ccc(C)cc2)cc1)C(=O)NCCO | -0.101
65 | COc1ccccc1-n1cnc2cc(NCc3cccs3)ccc21 | -0.604
66 | COc1ccc(C2C(C#N)=C(N)Oc3n[nH]c(C)c32)cc1CSc1ccccn1 (centres undefined) | -0.845

Row | SMILES | z-score
67 | C=CCOc1c(Cl)cc(C2NC(=O)NC(C)=C2C(=O)OC)cc1Cl (centres undefined) | -0.332
68 | CCSc1nc(=S)n(CC)c(C)c1C(C)=O | -0.265
69 | COc1ccc(-n2c(C(C)n3nc(C)c([N+](=O)[O-])c3C)n[nH]c2=S)cc1 (centres undefined) | -0.0141
70 | Cc1ccc(NC(=S)NNC(=O)CSc2nc3ccccc3c(=O)n2-c2ccc(C)cc2)cc1 | -0.293
71 | Cc1ccc(-c2nc(CS(=O)CC(=O)NCCCN3CC(C)CC(C)C3)c(C)o2)cc1 (centres undefined) | 0.468
72 | Cc1cc(/C=N\NC(=O)c2cccs2)c(C)n1-c1ccc2ncccc2c1 | -0.00561
73 | O=C(Nc1ccccc1)OCc1cn(-c2ccc(Cl)cc2)nn1 | -0.251
74 | CCOC(=O)COc1cc2c3c(c(=O)oc2cc1C)CCCC3 | -0.732
75 | O=C(NNc1ccccn1)C(=O)NNS(=O)(=O)c1ccc(Cl)cc1 | -0.163
76 | CN1CCC(OC(=O)COc2ccc(C(C)(C)C)cc2)CC1 | 0.712
77 | COc1ccc(-c2nnc(NC(=O)c3cc(C)on3)s2)cc1 | 0.861
78 | CCc1ccc(C(=O)NN(C(=O)c2ccc(CC)cc2)C(C)(C)C)cc1 | -1.47
79 | CC1=CC(C)C2(CO)COC(c3ccccc3O)C1C2C (centres undefined) | -0.388
80 | COc1ccc(N2CCN(Cc3nc4ccsc4c(=O)[nH]3)CC2)cc1 | -0.255
81 | CN(C)c1ccnc(-n2cccc2/C=N/OCc2ccc(F)cc2Cl)c1C#N | -2.63
82 | O=C(c1ccc(S(=O)(=O)N2CCCCCC2)cc1)N1CCC(CN2C(=O)c3cccc4cccc(c34)C2=O)CC1 | -0.676
83 | Cc1nc(SCC(=O)Nc2cc(C)on2)c2c(=O)n(C)c(=O)n(C)c2n1 | 0.363
84 | Cc1cc(NC(=O)c2cnn3c(C(F)(F)F)cc(-c4ccc(Br)cc4)nc23)no1 | 0.863
85 | C/C(=C\C(=O)C(F)(F)F)Nc1ccc(C(F)(F)F)cc1 | 0.143
86 | Cc1ccc(S(=O)(=O)N2CC(O)CC2C(=O)Nc2ccc3c(c2)CCC3)cc1 (centres undefined) | 2.07
87 | Cc1ccc(S(=O)(=O)NC2c3cccc4cccc(c34)C2Sc2nncn2C)cc1 (centres undefined) | 0.0483
88 | CCOc1ccc(/C=C/C(=O)c2c(O)c3ccccc3oc2=O)cc1 | 0.155

Row | SMILES | z-score
89 | Cc1ccccc1NS(=O)(=O)c1ccc(C2CNC(=O)C2)cc1 (centres undefined) | -0.342
90 | Cc1ccc(C(=O)/C=C/Nc2ccc(S(=O)(=O)Nc3onc(C)c3C)cc2)cc1 | 0.422
91 | CCOC(=O)N1CCC(NCCNC(=O)c2cccs2)CC1 | -0.43
92 | O=c1n(Cc2ccc(Cl)cc2)c2sc3c(c2c2ncnn12)CCCC3 | -0.595
93 | O=C(NC(Cc1ccccc1)C(=O)O)C1CCCCC1 (centres undefined) | -0.213
94 | O=C(Cn1nc(Cc2ccncc2)c2ccccc2c1=O)N1CCN(C(=O)c2ccco2)CC1 | active: 3.76
95 | COc1ccc(C(=O)N2CCCC(c3nc(-c4ccc(OC)c(OC)c4)no3)C2)c(OC)c1 (centres undefined) | 1.76
96 | CC(C(=O)N1c2ccc(F)cc2CCC1C)N1C(=O)c2ccccc2C1=O (centres undefined) | 0.386
97 | CCOC(=O)COc1ccc(Cl)cc1C1NC(=O)NC(C)=C1C(C)=O (centres undefined) | 0.17
98 | Cn1c(=NC(=O)C2CC2)sc2cccc(F)c21 | -0.189
99 | Nc1c(C(=O)NCc2ccco2)c2nc3ccccc3nc2n1CCc1ccc(F)cc1 | -0.43
100 | CSc1nsc(SCCN2C(=O)c3ccccc3C2=O)n1 | 0.572
101 | CCOC(=O)c1c(C)sc2c1N(C(=O)CN1CCOCC1)c1cc(Cl)ccc1S2 | -0.13
102 | CO/N=C/NC(=O)NOCc1c(Cl)cccc1Cl | 0.548
103 | O=C(CSc1nc2ccc(Cl)cc2[nH]1)Nc1ccc2c(c1)CCC2 | active: 3.89
104 | COc1ccccc1N1CCN(CC(=O)c2ccc3ccn(C(C)=O)c3c2)CC1 | 1.11
105 | Cc1cc(=O)[nH]c(SCC(=O)Nc2cccc3ccccc23)c1C#N | -0.192
106 | COC(=O)c1ccc(N2CCN(c3ccccc3)CC2)c(NC(=O)C2CC2)c1 | 1.42
107 | O=C(CSCc1ccc([N+](=O)[O-])cc1)NC1CC1 | -0.237
108 | CC/C(=N\NC(=O)CSCc1ccc(Cl)cc1)c1ccc2c(c1)OCCO2 | -0.78
109 | O=C(c1cc(-c2ccco2)on1)N1CCCc2ccccc21 | -0.298
